According to the supplement of paper PMC8728848:
The other results are listed elsewhere or left out.

Legend:
Test in all cases: glycan array binding signal (z-score within array); higher = stronger binding
Conditions in all cases: glycan notation: IUPAC condensed, linker removed
[1] = molecular target: GlcNAc(b1-2)Gal(b1-3)GalNAc
Summary of the method: (§1)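 Glycan array data came from 3228 arrays in the Consortium for Functional Glycomics database, and only arrays with an available protein sequence were kept. Glycan names were put into IUPAC-condensed notation, and columns mapping to the same glycan were averaged. The binding signal is a within-array Z-score, averaged across arrays of one protein sequence run at different concentrations or buffers and across linkers. A negative Z-score can be read as non-binding.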

[2] = molecular target: GlcNAc(b1-2)Man(a1-3)[GlcNAc(b1-2)Man(a1-6)]Man(b1-4)GlcNAc(b1-4)GlcNAc
Summary of the method: as §1

[3] = molecular target: GlcNAc(b1-2)Man(a1-3)[GlcNAc(b1-2)Man(a1-6)]Man(b1-4)GlcNAc(b1-4)[Fuc(a1-6)]GlcNAc
Summary of the method: as §1

[4] = molecular target: GlcNAc(b1-2)Man(a1-3)[GlcNAc(b1-4)][GlcNAc(b1-2)Man(a1-6)]Man(b1-4)GlcNAc(b1-4)GlcNAc
Summary of the method: as §1

[5] = molecular target: GlcNAc(b1-2)Man(a1-3)[GlcNAc(b1-4)][GlcNAc(b1-2)Man(a1-6)]Man(b1-4)GlcNAc(b1-4)[Fuc(a1-6)]GlcNAc
Summary of the method: as §1

[6] = molecular target: GlcNAc(b1-2)[GlcNAc(b1-4)]Man(a1-3)[GlcNAc(b1-2)Man(a1-6)]Man(b1-4)GlcNAc(b1-4)GlcNAc
Summary of the method: as §1

[7] = molecular target: GlcNAc(b1-2)[GlcNAc(b1-4)]Man(a1-3)[GlcNAc(b1-4)][GlcNAc(b1-2)Man(a1-6)]Man(b1-4)GlcNAc(b1-4)GlcNAc
Summary of the method: as §1

[8] = molecular target: GlcNAc(b1-2)[GlcNAc(b1-4)]Man(a1-3)[GlcNAc(b1-4)][GlcNAc(b1-2)[GlcNAc(b1-6)]Man(a1-6)]Man(b1-4)GlcNAc(b1-4)GlcNAc
Summary of the method: as §1

[9] = molecular target: GlcNAc(b1-2)[GlcNAc(b1-4)]Man(a1-3)[GlcNAc(b1-4)][GlcNAc(b1-2)[GlcNAc(b1-6)]Man(a1-6)]Man(b1-4)GlcNAc(b1-4)[Fuc(a1-6)]GlcNAc
Summary of the method: as §1

[10] = molecular target: GlcNAc(b1-2)[GlcNAc(b1-6)]Man(a1-6)[GlcNAc(b1-2)Man(a1-3)]Man(b1-4)GlcNAc(b1-4)GlcNAc
Summary of the method: as §1

[11] = molecular target: GlcNAc(b1-2)[GlcNAc(b1-6)]Man(a1-6)[GlcNAc(b1-2)Man(a1-3)]Man(b1-4)GlcNAc(b1-4)[Fuc(a1-6)]GlcNAc
Summary of the method: as §1

[12] = molecular target: GlcNAc(b1-2)[GlcNAc(b1-6)]Man(a1-6)[GlcNAc(b1-4)][GlcNAc(b1-2)Man(a1-3)]Man(b1-4)GlcNAc(b1-4)GlcNAc
Summary of the method: as §1

GlcNAc(b1-3)Fuc = molecular target: GlcNAc(b1-3)Fuc
Summary of the method: as §1

GlcNAc(b1-3)Gal = molecular target: GlcNAc(b1-3)Gal
Summary of the method: as §1

[13] = molecular target: GlcNAc(b1-3)Gal(b1-3)GalNAc
Summary of the method: as §1

GlcNAc(b1-3)Gal(b1-4)Glc = molecular target: GlcNAc(b1-3)Gal(b1-4)Glc
Summary of the method: as §1

[14] = molecular target: GlcNAc(b1-3)Gal(b1-4)GlcNAc
Summary of the method: as §1

[15] = molecular target: GlcNAc(b1-3)Gal(b1-4)GlcNAc(b1-2)Man(a1-3)[GlcNAc(b1-3)Gal(b1-4)GlcNAc(b1-2)Man(a1-6)]Man(b1-4)GlcNAc(b1-4)GlcNAc
Summary of the method: as §1

[16] = molecular target: GlcNAc(b1-3)Gal(b1-4)GlcNAc(b1-2)Man(a1-3)[GlcNAc(b1-3)Gal(b1-4)GlcNAc(b1-2)Man(a1-6)]Man(b1-4)GlcNAc(b1-4)[Fuc(a1-6)]GlcNAc
Summary of the method: as §1

[17] = molecular target: GlcNAc(b1-3)Gal(b1-4)GlcNAc(b1-2)[GlcNAc(b1-3)Gal(b1-4)GlcNAc(b1-6)]Man(a1-6)[GlcNAc(b1-3)Gal(b1-4)GlcNAc(b1-2)Man(a1-3)]Man(b1-4)GlcNAc(b1-4)GlcNAc
Summary of the method: as §1

[18] = molecular target: GlcNAc(b1-3)Gal(b1-4)GlcNAc(b1-3)Gal(b1-4)GlcNAc
Summary of the method: as §1

[19] = molecular target: GlcNAc(b1-3)Gal(b1-4)GlcNAc(b1-3)Gal(b1-4)GlcNAc(b1-2)Man(a1-3)[GlcNAc(b1-3)Gal(b1-4)GlcNAc(b1-3)Gal(b1-4)GlcNAc(b1-2)Man(a1-6)]Man(b1-4)GlcNAc(b1-4)GlcNAc
Summary of the method: as §1

[20] = molecular target: GlcNAc(b1-3)Gal(b1-4)GlcNAc(b1-3)Gal(b1-4)GlcNAc(b1-2)Man(a1-3)[GlcNAc(b1-3)Gal(b1-4)GlcNAc(b1-3)Gal(b1-4)GlcNAc(b1-2)Man(a1-6)]Man(b1-4)GlcNAc(b1-4)[Fuc(a1-6)]GlcNAc
Summary of the method: as §1

[21] = molecular target: GlcNAc(b1-3)Gal(b1-4)GlcNAc(b1-3)Gal(b1-4)GlcNAc(b1-2)[GlcNAc(b1-3)Gal(b1-4)GlcNAc(b1-3)Gal(b1-4)GlcNAc(b1-6)]Man(a1-6)[GlcNAc(b1-3)Gal(b1-4)GlcNAc(b1-3)Gal(b1-4)GlcNAc(b1-2)Man(a1-3)]Man(b1-4)GlcNAc(b1-4)[Fuc(a1-6)]GlcNAc
Summary of the method: as §1

[22] = molecular target: GlcNAc(b1-3)Gal(b1-4)GlcNAc(b1-3)Gal(b1-4)GlcNAc(b1-3)Gal(b1-4)GlcNAc(b1-2)Man(a1-3)[GlcNAc(b1-3)Gal(b1-4)GlcNAc(b1-3)Gal(b1-4)GlcNAc(b1-3)Gal(b1-4)GlcNAc(b1-2)Man(a1-6)]Man(b1-4)GlcNAc(b1-4)GlcNAc
Summary of the method: as §1

[23] = molecular target: GlcNAc(b1-3)Gal(b1-4)GlcNAc(b1-3)Gal(b1-4)GlcNAc(b1-3)Gal(b1-4)GlcNAc(b1-2)Man(a1-3)[GlcNAc(b1-3)Gal(b1-4)GlcNAc(b1-3)Gal(b1-4)GlcNAc(b1-3)Gal(b1-4)GlcNAc(b1-2)Man(a1-6)]Man(b1-4)GlcNAc(b1-4)[Fuc(a1-6)]GlcNAc
Summary of the method: as §1

[24] = molecular target: GlcNAc(b1-3)Gal(b1-4)GlcNAc(b1-3)Gal(b1-4)GlcNAc(b1-3)Gal(b1-4)GlcNAc(b1-2)[GlcNAc(b1-3)Gal(b1-4)GlcNAc(b1-3)Gal(b1-4)GlcNAc(b1-3)Gal(b1-4)GlcNAc(b1-6)]Man(a1-6)[GlcNAc(b1-3)Gal(b1-4)GlcNAc(b1-3)Gal(b1-4)GlcNAc(b1-3)Gal(b1-4)GlcNAc(b1-2)Man(a1-3)]Man(b1-4)GlcNAc(b1-4)[Fuc(a1-6)]GlcNAc
Summary of the method: as §1

[25] = molecular target: GlcNAc(b1-3)Gal(b1-4)GlcNAc(b1-3)Gal(b1-4)GlcNAc(b1-3)Gal(b1-4)GlcNAc(b1-3)Gal(b1-4)GlcNAc(b1-2)Man(a1-3)[GlcNAc(b1-3)Gal(b1-4)GlcNAc(b1-3)Gal(b1-4)GlcNAc(b1-3)Gal(b1-4)GlcNAc(b1-3)Gal(b1-4)GlcNAc(b1-2)Man(a1-6)]Man(b1-4)GlcNAc(b1-4)GlcNAc
Summary of the method: as §1

[26] = molecular target: GlcNAc(b1-3)Gal(b1-4)GlcNAc(b1-3)Gal(b1-4)GlcNAc(b1-3)Gal(b1-4)GlcNAc(b1-3)Gal(b1-4)GlcNAc(b1-2)Man(a1-3)[GlcNAc(b1-3)Gal(b1-4)GlcNAc(b1-3)Gal(b1-4)GlcNAc(b1-3)Gal(b1-4)GlcNAc(b1-3)Gal(b1-4)GlcNAc(b1-2)Man(a1-6)]Man(b1-4)GlcNAc(b1-4)[Fuc(a1-6)]GlcNAc
Summary of the method: as §1

[27] = molecular target: GlcNAc(b1-3)Gal(b1-4)GlcNAc(b1-3)Gal(b1-4)GlcNAc(b1-3)Gal(b1-4)GlcNAc(b1-3)Gal(b1-4)GlcNAc(b1-2)[GlcNAc(b1-3)Gal(b1-4)GlcNAc(b1-3)Gal(b1-4)GlcNAc(b1-3)Gal(b1-4)GlcNAc(b1-3)Gal(b1-4)GlcNAc(b1-6)]Man(a1-6)[GlcNAc(b1-3)Gal(b1-4)GlcNAc(b1-3)Gal(b1-4)GlcNAc(b1-3)Gal(b1-4)GlcNAc(b1-3)Gal(b1-4)GlcNAc(b1-2)Man(a1-3)]Man(b1-4)GlcNAc(b1-4)[Fuc(a1-6)]GlcNAc
Summary of the method: as §1

[28] = molecular target: GlcNAc(b1-3)Gal(b1-4)GlcNAc(b1-3)Gal(b1-4)GlcNAc(b1-3)GalNAc
Summary of the method: as §1

[29] = molecular target: GlcNAc(b1-3)Gal(b1-4)GlcNAc(b1-3)GalNAc
Summary of the method: as §1

[30] = molecular target: GlcNAc(b1-3)Gal(b1-4)GlcNAc(b1-3)[GlcNAc(b1-3)Gal(b1-4)GlcNAc(b1-3)]GalNAc
Summary of the method: as §1

[31] = molecular target: GlcNAc(b1-3)Gal(b1-4)GlcNAc(b1-6)[Gal(b1-3)]GalNAc
Summary of the method: as §1

[32] = molecular target: GlcNAc(b1-3)Gal(b1-4)GlcNAc(b1-6)[GlcNAc(b1-3)Gal(b1-3)]GalNAc
Summary of the method: as §1

[33] = molecular target: GlcNAc(b1-3)Gal(b1-4)GlcNAc(b1-6)[GlcNAc(b1-3)]Gal(b1-4)GlcNAc
Summary of the method: as §1

GlcNAc(b1-3)GalNAc = molecular target: GlcNAc(b1-3)GalNAc
Summary of the method: as §1

B1: B160 (Bifidobacterium sp) (protein)
chain: MVSHNKRIVAALAAVAAMGIGLAGCGGSDTAGDTKSGSDGGVVNITYMHRLPDSEGMTLVNDIVAKWNKEHPNIQVKATKFDGNAADMIKKLETDVKAGNAPDLAQVGYAEVPEVFTKGLLQDVTDEAAKYKDDFASGPFALMQVDGKTYGLPQDTGPLTYFYNAAEFEKLGITVPKTADELIETAKKTAAQGKYIMTFTPDEAMMMMSGQAGASGPWYKVDGNSWVVNTQTKGSKAVADVYQQLIDNKAALTNPRWDASFDNSIQSGQLIGTVAAAWEAPLFIDSAGGTGAGEWKVTQLGDWFGNGTKTGANGGSGVAVLKGSKHPAEAMEFLDWFNTQVDDLVSQGLVVAATTADAKTPQKWSDYFSGQDVMAEFKTANDNMGDFTYMPGFSAVGAAMKQTAAKAADGSAKVSDVFDTAQKTSVDTLKNLGLSVKE
[1]
  glycan array binding signal (z-score): -0.155
[2]
  glycan array binding signal (z-score): -0.174
[3]
  glycan array binding signal (z-score): -0.113
[4]
  glycan array binding signal (z-score): -0.197
[5]
  glycan array binding signal (z-score): -0.19
[6]
  glycan array binding signal (z-score): -0.178
[7]
  glycan array binding signal (z-score): -0.16
[8]
  glycan array binding signal (z-score): -0.176
[9]
  glycan array binding signal (z-score): -0.18
[10]
  glycan array binding signal (z-score): -0.166
[11]
  glycan array binding signal (z-score): -0.112
[12]
  glycan array binding signal (z-score): -0.149
GlcNAc(b1-3)Fuc
  glycan array binding signal (z-score): -0.132
GlcNAc(b1-3)Gal
  glycan array binding signal (z-score): -0.153
[13]
  glycan array binding signal (z-score): -0.171
GlcNAc(b1-3)Gal(b1-4)Glc
  glycan array binding signal (z-score): -0.17
[14]
  glycan array binding signal (z-score): -0.175
[15]
  glycan array binding signal (z-score): -0.174
[16]
  glycan array binding signal (z-score): -0.081
[17]
  glycan array binding signal (z-score): -0.158
[18]
  glycan array binding signal (z-score): -0.139
[19]
  glycan array binding signal (z-score): -0.131
[20]
  glycan array binding signal (z-score): -0.139
[21]
  glycan array binding signal (z-score): -0.12
[22]
  glycan array binding signal (z-score): -0.179
[23]
  glycan array binding signal (z-score): -0.139
[24]
  glycan array binding signal (z-score): -0.094
[25]
  glycan array binding signal (z-score): -0.149
[26]
  glycan array binding signal (z-score): -0.164
[27]
  glycan array binding signal (z-score): -0.174
[28]
  glycan array binding signal (z-score): -0.158
[29]
  glycan array binding signal (z-score): -0.17
[30]
  glycan array binding signal (z-score): -0.134
[31]
  glycan array binding signal (z-score): -0.145
[32]
  glycan array binding signal (z-score): -0.164
[33]
  glycan array binding signal (z-score): -0.173
GlcNAc(b1-3)GalNAc
  glycan array binding signal (z-score): -0.154
